Experimental data taken from PubChem BioAssay AID1508621 (National Center for Advancing Translational Sciences (NCATS), 2021).
Inconclusive means that the source gave no clear call. Such entries were picked first, then a sample of the others. Potencies of inconclusive entries are doubtful fits and often do not repeat. Activity calls are given as the source filed them. Calls follow the shape of the dose curve; as a rule, active = well fitted inhibition curve with a large enough effect; inconclusive = small, poorly fitted or top-dose-only effect; inactive = no such curve, though single readings can be large or run the other way.

Assay: Confirmatory qHTS for Identification of Small Molecule Inhibitors of Huntingtin Promoter Activity; also: nearly all actives have a fitted effect of over 65% in size
Conditions: HEK293 HTT promoter firefly luciferase reporter, 24 h; series mostly up to 57.5 µM
Method in brief: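 Plated reporter HEK293 cells (24 h) received library compounds at up to 57.5 uM final or 50 uM PTC124, incubated 24 h at 37C; firefly luciferase luminescence was then recorded with Dual-Glo reagent.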
Potency is read from the fitted curve at half-maximal effect; tags tell the direction and shape of the fitted curve.

Potency, inactive:
CCOc1ccccc1NC(=O)C(=O)c1cc(C)n(-c2ccc(F)cc2)c1C, NC(=O)Nc1cc(-c2ccc(CN3CCOCC3)cc2)sc1C(N)=O, Cc1[nH]c2ccccc2c1CCNCc1ccc(C=CC(=O)NO)cc1, CCN(CC)CCOc1ccc(C(=C(Cl)c2ccccc2)c2ccccc2)cc1, COc1ccc(NC(=O)Cn2c(SCc3ccc(F)cc3)nc3cccnc32)cc1OC, COc1ccccc1C1CC(=O)NC(C)=C1C(=O)OC1CCCCCC1 (stereo not given)

Potency, active:
CCS(=O)(=O)c1ncc(Cl)c(C(=O)N(Cc2ccccc2)c2ccc(OC)cc2)n1 10.7 µM, CN1C(=O)c2ccccc2Sc2ccc(NC(=O)NCc3ccc(Cl)cc3)cc21 23.9 µM

Potency, inconclusive:
COc1ccc(Nc2sc(C(=O)c3ccccc3)c(N)c2C(=O)Nc2cc(C)ccc2C)c(OC)c1 16.9 µM [inhibitor, partial curve], CC(C)c1ccc(NC(=O)CSC2=Nc3ccccc3C3=NC(CCC(=O)NCc4ccc(F)cc4)C(=O)N23)cc1 (stereo not given) 21.3 µM [inhibitor, single point], COc1cc(CN2CCc3nc(N4CCN(c5ccccc5F)CC4)ncc3C2)ccc1OC(C)C 0.536 µM [inhibitor, full curve], Cc1cccc(-c2nc(CSCC(=O)N3CCN(c4ccccc4)CC3)c(C)o2)c1 26.9 µM [inhibitor, partial curve], COc1cccc(C(=O)NC(c2ccc(Cl)cc2)c2cc(Cl)c3cccnc3c2O)c1 (stereo not given) 4.78 µM [inhibitor, partial curve], COc1cc(NC(=O)c2cnc3c(-c4ccc(F)cc4)c(C)nn3c2C)cc(OC)c1 37.9 µM [inhibitor, single point], CCc1cccc2sc(N3CCN(C(=O)c4cc5ccccc5cc4OC)CC3)nc12 26.9 µM [inhibitor, single point], COc1ccc(N(CC(=O)N2CCN(c3cccc(C)c3C)CC2)S(=O)(=O)c2c(C)noc2C)cc1 16.9 µM [inhibitor, partial curve], Cc1cc(F)ccc1NC(=O)C1CCCN(C(=O)c2cnn(-c3ccccc3)c2-n2cccc2)C1 (stereo not given) 23.9 µM [inhibitor, partial curve], Cc1cccc2sc(N3CCN(C(=O)CS(=O)(=O)c4ccc(F)cc4)CC3)nc12 21.3 µM [inhibitor, partial curve], CCn1c(SCc2cccc(Br)c2)nnc1-c1nonc1NC(C)=O 19 µM [inhibitor, partial curve], Cc1ccccc1CN1CCc2nc(N3CCN(c4ccccn4)CC3)ncc2C1 8.49 µM [inhibitor, partial curve], CCOc1cc(C(=O)Nc2ccc3oc(-c4ccc(CC)cc4)nc3c2)cc(OCC)c1OCC 2.13 µM [inhibitor, partial curve], Cc1ccccc1CN1c2ccccc2-c2nc(SCC(=O)Nc3cc(F)ccc3F)ncc2S1(=O)=O 19 µM [inhibitor, partial curve], COc1cc(C2CC(=O)c3c([nH]c(C(=O)OCc4ccc(C)cc4)c3C)C2)cc(OC)c1OC (stereo not given) 4.26 µM [inhibitor, partial curve], COc1ccc(NC(=O)CSc2oc(-c3cccs3)nc2S(=O)(=O)c2ccccc2)c(OC)c1 26.9 µM [inhibitor, single point], O=C(Nc1nnc(S(=O)(=O)N2CCc3ccccc32)s1)c1cccc(Cl)c1 12 µM [inhibitor, partial curve], COc1cc(CNC(=O)c2ccc3nc(Cc4ccccc4)oc3c2)cc(OC)c1OC 10.7 µM [inhibitor, partial curve], O=C(NC1CCCCC1)c1ccc(CSc2nc3cccnc3n2Cc2cccc(F)c2)cc1 21.3 µM [inhibitor, partial curve], O=C(Nc1ccccc1)C1CCN(S(=O)(=O)c2ccc3[nH]c4c(c3c2)CCCCC4)CC1 23.9 µM [inhibitor, partial curve], Cc1ccccc1Cc1c(C)nc2c(-c3ccccc3)c(C)[nH]n2c1=O 10.7 µM [inhibitor, partial curve], Cc1ccc(Cl)cc1N1CCN(C(=O)c2cccn2-c2nnc(N3CCCCC3)s2)CC1 23.9 µM [inhibitor, single point], O=S(=O)(NCc1ccc(Cl)cc1)c1ccc(N2CCCCS2(=O)=O)cc1 10.7 µM [inhibitor, partial curve], Cn1c(COc2ccccc2C(C)(C)C)nc2ccccc21 21.3 µM [inhibitor, partial curve], COc1ccccc1C(=O)Oc1c(Sc2ccccc2)c(C)nn1C(C)(C)C 33.8 µM [inhibitor, single point], Cc1cccc(CN2C(=O)N(c3ccc(C(C)C)cc3)S(=O)(=O)c3ccccc32)c1 26.9 µM [inhibitor, single point], COc1ccc(-c2[nH]c3ccccc3c2SCCNC(=O)c2cc(OC)c(OC)c(OC)c2)cc1 30.1 µM [inhibitor, partial curve], COc1ccc(NC(=O)Cn2c(=O)oc3cc(S(=O)(=O)N4CCCCCC4)ccc32)cc1OC 21.3 µM [inhibitor, partial curve], COc1ccc(-c2nc(CNS(=O)(=O)c3ccc(F)cc3)cs2)cc1 23.9 µM [inhibitor, partial curve], Cc1ccc(SCc2nc(-c3ccc(C(=O)NCC(C)c4ccccc4)cc3)oc2C)cc1 (stereo not given) 13.5 µM [inhibitor, partial curve], Cc1ccc(NCc2cccn2-c2nnc(N3CCC(C(=O)NC(C)C)CC3)s2)cc1 16.9 µM [inhibitor, partial curve], COc1ccc(C)cc1NS(=O)(=O)c1ccc(-c2cnc(C3CC3)o2)cc1 0.675 µM [inhibitor, full curve]
